From the supplement of paper PMC7826260
The list shows a part of the results. Cleavage of a single-stranded DNA pool by Rep nickase domains was read by sequencing for 1 h at 37 °C with 3 µM enzyme; only the middle of the 90-letter strands is printed. Numbers give uncut DNA relative to the enzyme-free pool, as log2; uncut sequences lie near 0, cut ones below; no hit call is given. Counts are relative to all reads; values above 0 arise when much of the pool is cut.

Key:
Assay in all cases: uncleaved DNA left, log2 of reads against the no-enzyme library (log2 ratio); higher = less cleavage (more negative = more Rep cleavage of the k-mer); sequences stand for … in CTCGTCCG…ACCGGAGA
[1] = test system: T1, Rep nickase domain of Muscovy duck circovirus
T1 sequence (residues 1-111, tag not shown): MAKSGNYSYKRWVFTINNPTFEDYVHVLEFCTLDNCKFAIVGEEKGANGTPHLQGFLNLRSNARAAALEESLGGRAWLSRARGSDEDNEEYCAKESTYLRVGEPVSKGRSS
Protocol: (§1)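 A pool of 90-nt single-stranded DNAs with seven random bases just before the constant AC of the nick site (name = the seven bases) was cut by 3 µM recombinant His6-SUMO-tagged Rep nickase domain (300 nM DNA, 50 mM HEPES pH 8.0, 50 mM NaCl, 1 mM MnCl2, 1 h, 37 °C, three replicates). Uncut DNA was amplified and sequenced.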

[2] = test system: T2, Rep nickase domain of banana bunchy top virus
T2 sequence (residues 1-94, tag not shown): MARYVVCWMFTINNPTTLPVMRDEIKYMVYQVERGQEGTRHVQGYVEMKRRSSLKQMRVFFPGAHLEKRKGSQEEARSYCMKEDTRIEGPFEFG
Protocol: as §1

[3] = test system: T3, Rep nickase domain of cabbage leaf curl virus
T3 sequence (residues 1-116, tag not shown): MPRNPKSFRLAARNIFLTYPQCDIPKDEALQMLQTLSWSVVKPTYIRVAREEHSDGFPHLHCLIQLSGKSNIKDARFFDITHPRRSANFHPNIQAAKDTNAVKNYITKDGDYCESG
Protocol: as §1

[4] = test system: T4, Rep nickase domain of chickpea chlorotic dwarf virus
T4 sequence (residues 1-124, tag not shown): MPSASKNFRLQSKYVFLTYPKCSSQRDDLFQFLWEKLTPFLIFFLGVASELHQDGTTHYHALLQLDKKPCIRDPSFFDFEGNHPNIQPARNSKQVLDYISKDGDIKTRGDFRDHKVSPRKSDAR
Protocol: as §1

[5] = test system: T5, Rep nickase domain of faba bean necrotic yellows virus
T5 sequence (residues 1-98, tag not shown): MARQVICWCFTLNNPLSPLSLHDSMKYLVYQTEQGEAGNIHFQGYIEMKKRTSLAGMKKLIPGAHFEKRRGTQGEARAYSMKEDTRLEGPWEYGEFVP
Protocol: as §1

[6] = test system: T6, Rep nickase domain of maize striate mosaic virus
T6 sequence (residues 1-117, tag not shown): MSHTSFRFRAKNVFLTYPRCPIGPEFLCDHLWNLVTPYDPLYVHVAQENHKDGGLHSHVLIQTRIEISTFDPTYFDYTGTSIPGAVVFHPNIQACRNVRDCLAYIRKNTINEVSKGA
Protocol: as §1

[7] = test system: T7, Rep nickase domain of porcine circovirus 2
T7 sequence (residues 2-116, tag not shown): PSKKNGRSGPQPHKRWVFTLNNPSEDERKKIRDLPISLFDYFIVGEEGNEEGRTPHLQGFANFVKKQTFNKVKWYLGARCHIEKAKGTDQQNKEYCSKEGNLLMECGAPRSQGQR
Protocol: as §1

[8] = test system: T8, Rep nickase domain of tomato golden mosaic virus
T8 sequence (residues 1-124, tag not shown): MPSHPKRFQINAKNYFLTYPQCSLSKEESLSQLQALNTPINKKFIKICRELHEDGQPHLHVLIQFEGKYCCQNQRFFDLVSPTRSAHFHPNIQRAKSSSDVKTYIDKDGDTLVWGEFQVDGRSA
Protocol: as §1

[9] = test system: T9, Rep nickase domain of tomato yellow leaf curl virus
T9 sequence (residues 1-136, tag not shown): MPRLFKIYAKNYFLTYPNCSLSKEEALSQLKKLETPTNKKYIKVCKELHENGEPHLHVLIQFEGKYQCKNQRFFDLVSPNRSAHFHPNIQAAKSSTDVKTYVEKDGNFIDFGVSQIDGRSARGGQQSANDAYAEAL
Protocol: as §1

[10] = test system: T10, Rep nickase domain of wheat dwarf virus
T10 sequence (residues 1-137, tag not shown): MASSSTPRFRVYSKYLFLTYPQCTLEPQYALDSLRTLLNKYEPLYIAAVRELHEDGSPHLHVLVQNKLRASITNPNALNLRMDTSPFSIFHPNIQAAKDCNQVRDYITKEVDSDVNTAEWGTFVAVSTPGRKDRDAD
Protocol: as §1

Sequence	uncleaved DNA left (log2) [1]	uncleaved DNA left (log2) [2]	uncleaved DNA left (log2) [3]	uncleaved DNA left (log2) [4]	uncleaved DNA left (log2) [5]	uncleaved DNA left (log2) [6]	uncleaved DNA left (log2) [7]	uncleaved DNA left (log2) [8]	uncleaved DNA left (log2) [9]	uncleaved DNA left (log2) [10]
GGAACGG	0.105	0.163	0.717	1.76	0.0683	2.15	0.157	0.129	0.103	0.231
TCGGCAT	-0.0341	-0.0344	0.557	1.17	0.00316	1.51	0.0887	-0.032	-0.208	0.067
TCTGCTC	-0.0167	-0.162	-0.0821	-0.655	-0.0318	-0.701	-0.127	-0.111	-0.00204	-0.175
TTGTTTT	-3.06	-1.03	0.0365	-1.73	-0.577	-0.388	-3.18	-0.224	0.0101	-0.238
GAAAGTG	0.13	-0.0014	-0.451	-0.514	0.0848	-0.75	0.226	0.0741	0.0959	0.00894
TTCCGCG	-0.00466	-0.00282	-0.661	0.467	-0.047	-0.608	0.129	-0.124	-0.115	-0.0951
AGCTAAA	0.0593	0.121	-0.0917	0.434	0.0277	0.292	-0.202	0.0616	0.0109	0.082
TGGAATC	-0.0473	0.0568	0.364	1.09	-0.14	1.43	0.121	-0.0426	0.0528	0.0191
CTAACAC	0.00429	-0.0394	-0.501	-1.65	0.0565	-0.843	0.0433	-0.00702	-0.0312	-0.133
GGAGCGT	-0.135	-0.0284	0.348	0.908	-0.11	0.675	0.0597	-0.0675	-0.107	-0.0292
GGTTAGT	-0.474	-0.0202	0.47	1.04	-0.0778	1.64	-1.59	0.0323	0.0689	0.111
CACCGAG	-0.0106	0.0208	0.725	1.62	-0.0717	0.754	0.227	0.0977	0.112	0.166
AAAATGT	0.0149	-0.0351	-0.975	-2.14	0.00487	-1.03	-0.344	-0.042	-0.0791	-0.323
CCCCACC	-0.154	-0.099	-0.0713	-0.665	-0.0504	-0.676	-0.258	-0.186	-0.284	-0.171
CGGTCGG	0.0602	0.216	0.353	0.968	0.00544	1.21	0.241	0.161	0.109	0.0401
CGCTTGT	-0.224	-0.195	-0.222	-0.227	-0.251	-0.482	-0.55	-0.228	-0.129	-0.154
TCGGCCA	-0.112	-0.0714	0.007	-0.438	-0.0984	-0.38	-0.255	-0.0534	-0.0212	-0.0764
CACAGCC	-0.155	-0.176	-0.295	-0.484	-0.0592	-0.939	0.0717	-0.152	-0.103	-0.0987
GGCTTAG	0.0563	0.0893	0.00177	0.453	0.0129	0.101	0.165	0.0551	0.0651	0.0817
CTTCACC	-0.118	-0.135	-0.0486	-0.717	-0.0709	-0.557	-0.285	-0.133	-0.0657	-0.125
AACCGAC	0.158	-0.013	0.0417	0.239	0.126	-0.484	0.0263	0.153	0.0626	0.101
CACGTTA	-0.033	-0.276	-0.243	-2.28	-0.0418	-0.69	-0.275	-0.0314	-0.0754	-0.141
GCTTCAG	-0.0148	0.0351	-0.263	-0.199	-0.0754	-0.824	0.0503	0.109	0.0514	-0.0711
TAGCGTA	-0.0757	-0.101	-0.426	-1.36	0.0377	-1.01	-0.402	0.0932	0.0728	0.00298
CGGTGTC	-0.0379	-0.157	0.288	0.286	-0.00107	0.149	-0.00721	-0.0863	0.0386	-0.0142
TTAGATC	0.222	0.129	0.271	0.138	0.183	-0.0618	0.173	0.075	0.0895	0.112
TGAGAAC	0.0768	0.0258	0.393	0.482	0.053	0.465	0.189	-0.0167	0.0916	0.118
TAGTAAC	-0.0229	-0.093	-0.128	-1.47	-0.202	-0.295	-3.28	-0.0259	-0.0208	-0.0337
CAACGTT	-0.0288	-0.181	-2.06	-3.18	-0.04	-0.936	-0.888	-0.181	-0.026	-0.753
